# Source: the supplement of paper PMC8728848
# The other results are listed elsewhere or left out.
# B1: HML-Native (Hypnea musciformis), P84871 (protein)
# chain: QKFCTLDIAPVCCQIVIGGGMYTAGNACMCEGFVSGVGRCENPKECPCTREAQIPSCCSSRWGLVSVTGKCACDCLGGTVAFPEPCPSPY
# Legend:
# Assay in all cases: glycan array binding signal (z-score within array); higher = stronger binding
# Conditions in all cases: glycan notation: IUPAC condensed, linker removed
# Glc(b1-4)Glc = target: Glc(b1-4)Glc
# In short: (§1)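 Glycan array data were curated from 3228 arrays in the Consortium for Functional Glycomics database and kept only where the protein sequence was available. Glycan names were converted to IUPAC-condensed notation, and columns mapping to the same glycan were averaged. The binding signal is a within-array Z-score, averaged across arrays of the same protein sequence at different concentrations or buffers and across linkers. Negative Z-scores can be read as non-binding.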
# Glc(b1-6)Glc = target: Glc(b1-6)Glc
# In short: as §1
# GlcA(b1-3)Gal = target: GlcA(b1-3)Gal
# In short: as §1
# GlcA(b1-3)GlcNAc = target: GlcA(b1-3)GlcNAc
# In short: as §1
# GlcA(b1-6)Gal = target: GlcA(b1-6)Gal
# In short: as §1
# [1] = target: GlcA3S(b1-3)Gal(b1-4)GlcNAc(b1-2)Man
# In short: as §1
# [2] = target: GlcA3S(b1-3)Gal(b1-4)GlcNAc(b1-3)Gal(b1-4)Glc
# In short: as §1
# [3] = target: GlcNAc(a1-3)Gal(b1-4)GlcNAc
# In short: as §1
# [4] = target: GlcNAc(a1-4)Gal(b1-3)GlcNAc
# In short: as §1
# [5] = target: GlcNAc(a1-4)Gal(b1-4)GalNAc
# In short: as §1
# [6] = target: GlcNAc(a1-4)Gal(b1-4)GlcNAc
# In short: as §1
# [7] = target: GlcNAc(a1-4)Gal(b1-4)GlcNAc(b1-3)Gal(b1-4)Glc
# In short: as §1
# [8] = target: GlcNAc(a1-4)Gal(b1-4)GlcNAc(b1-3)Gal(b1-4)GlcNAc
# In short: as §1
# [9] = target: GlcNAc(a1-4)Gal(b1-4)GlcNAc(b1-3)Gal(b1-4)GlcNAc(b1-3)Gal(b1-4)GlcNAc
# In short: as §1
# [10] = target: GlcNAc(a1-4)Gal(b1-4)GlcNAc(b1-3)Gal(b1-4)[Fuc(a1-3)]GlcNAc(b1-3)Gal(b1-4)[Fuc(a1-3)]GlcNAc
# In short: as §1
# [11] = target: GlcNAc(a1-6)Gal(b1-4)GlcNAc
# In short: as §1
# [12] = target: GlcNAc(b1-2)Gal(b1-3)GalNAc
# In short: as §1
# [13] = target: GlcNAc(b1-2)Man(a1-3)[GlcNAc(b1-2)Man(a1-6)]Man(b1-4)GlcNAc(b1-4)GlcNAc
# In short: as §1
# [14] = target: GlcNAc(b1-2)Man(a1-3)[GlcNAc(b1-2)Man(a1-6)]Man(b1-4)GlcNAc(b1-4)[Fuc(a1-6)]GlcNAc
# In short: as §1
# [15] = target: GlcNAc(b1-2)Man(a1-3)[GlcNAc(b1-4)][GlcNAc(b1-2)Man(a1-6)]Man(b1-4)GlcNAc(b1-4)GlcNAc
# In short: as §1
# [16] = target: GlcNAc(b1-2)Man(a1-3)[GlcNAc(b1-4)][GlcNAc(b1-2)Man(a1-6)]Man(b1-4)GlcNAc(b1-4)[Fuc(a1-6)]GlcNAc
# In short: as §1
# [17] = target: GlcNAc(b1-2)[GlcNAc(b1-4)]Man(a1-3)[GlcNAc(b1-2)Man(a1-6)]Man(b1-4)GlcNAc(b1-4)GlcNAc
# In short: as §1
# [18] = target: GlcNAc(b1-2)[GlcNAc(b1-4)]Man(a1-3)[GlcNAc(b1-4)][GlcNAc(b1-2)Man(a1-6)]Man(b1-4)GlcNAc(b1-4)GlcNAc
# In short: as §1
# [19] = target: GlcNAc(b1-2)[GlcNAc(b1-4)]Man(a1-3)[GlcNAc(b1-4)][GlcNAc(b1-2)[GlcNAc(b1-6)]Man(a1-6)]Man(b1-4)GlcNAc(b1-4)GlcNAc
# In short: as §1
# [20] = target: GlcNAc(b1-2)[GlcNAc(b1-4)]Man(a1-3)[GlcNAc(b1-4)][GlcNAc(b1-2)[GlcNAc(b1-6)]Man(a1-6)]Man(b1-4)GlcNAc(b1-4)[Fuc(a1-6)]GlcNAc
# In short: as §1
# [21] = target: GlcNAc(b1-2)[GlcNAc(b1-6)]Man(a1-6)[GlcNAc(b1-2)Man(a1-3)]Man(b1-4)GlcNAc(b1-4)GlcNAc
# In short: as §1
# [22] = target: GlcNAc(b1-2)[GlcNAc(b1-6)]Man(a1-6)[GlcNAc(b1-2)Man(a1-3)]Man(b1-4)GlcNAc(b1-4)[Fuc(a1-6)]GlcNAc
# In short: as §1
# [23] = target: GlcNAc(b1-2)[GlcNAc(b1-6)]Man(a1-6)[GlcNAc(b1-4)][GlcNAc(b1-2)Man(a1-3)]Man(b1-4)GlcNAc(b1-4)GlcNAc
# In short: as §1
# GlcNAc(b1-3)Fuc = target: GlcNAc(b1-3)Fuc
# In short: as §1
# GlcNAc(b1-3)Gal = target: GlcNAc(b1-3)Gal
# In short: as §1
# [24] = target: GlcNAc(b1-3)Gal(b1-3)GalNAc
# In short: as §1
# GlcNAc(b1-3)Gal(b1-4)Glc = target: GlcNAc(b1-3)Gal(b1-4)Glc
# In short: as §1
# [25] = target: GlcNAc(b1-3)Gal(b1-4)GlcNAc
# In short: as §1
# [26] = target: GlcNAc(b1-3)Gal(b1-4)GlcNAc(b1-2)Man(a1-3)[GlcNAc(b1-3)Gal(b1-4)GlcNAc(b1-2)Man(a1-6)]Man(b1-4)GlcNAc(b1-4)GlcNAc
# In short: as §1
# [27] = target: GlcNAc(b1-3)Gal(b1-4)GlcNAc(b1-2)Man(a1-3)[GlcNAc(b1-3)Gal(b1-4)GlcNAc(b1-2)Man(a1-6)]Man(b1-4)GlcNAc(b1-4)[Fuc(a1-6)]GlcNAc
# In short: as §1
# [28] = target: GlcNAc(b1-3)Gal(b1-4)GlcNAc(b1-2)[GlcNAc(b1-3)Gal(b1-4)GlcNAc(b1-6)]Man(a1-6)[GlcNAc(b1-3)Gal(b1-4)GlcNAc(b1-2)Man(a1-3)]Man(b1-4)GlcNAc(b1-4)GlcNAc
# In short: as §1
# [29] = target: GlcNAc(b1-3)Gal(b1-4)GlcNAc(b1-3)Gal(b1-4)GlcNAc
# In short: as §1
# [30] = target: GlcNAc(b1-3)Gal(b1-4)GlcNAc(b1-3)Gal(b1-4)GlcNAc(b1-2)Man(a1-3)[GlcNAc(b1-3)Gal(b1-4)GlcNAc(b1-3)Gal(b1-4)GlcNAc(b1-2)Man(a1-6)]Man(b1-4)GlcNAc(b1-4)GlcNAc
# In short: as §1
# [31] = target: GlcNAc(b1-3)Gal(b1-4)GlcNAc(b1-3)Gal(b1-4)GlcNAc(b1-2)Man(a1-3)[GlcNAc(b1-3)Gal(b1-4)GlcNAc(b1-3)Gal(b1-4)GlcNAc(b1-2)Man(a1-6)]Man(b1-4)GlcNAc(b1-4)[Fuc(a1-6)]GlcNAc
# In short: as §1
# [32] = target: GlcNAc(b1-3)Gal(b1-4)GlcNAc(b1-3)Gal(b1-4)GlcNAc(b1-2)[GlcNAc(b1-3)Gal(b1-4)GlcNAc(b1-3)Gal(b1-4)GlcNAc(b1-6)]Man(a1-6)[GlcNAc(b1-3)Gal(b1-4)GlcNAc(b1-3)Gal(b1-4)GlcNAc(b1-2)Man(a1-3)]Man(b1-4)GlcNAc(b1-4)[Fuc(a1-6)]GlcNAc
# In short: as §1
# [33] = target: GlcNAc(b1-3)Gal(b1-4)GlcNAc(b1-3)Gal(b1-4)GlcNAc(b1-3)Gal(b1-4)GlcNAc(b1-2)Man(a1-3)[GlcNAc(b1-3)Gal(b1-4)GlcNAc(b1-3)Gal(b1-4)GlcNAc(b1-3)Gal(b1-4)GlcNAc(b1-2)Man(a1-6)]Man(b1-4)GlcNAc(b1-4)GlcNAc
# In short: as §1
# [34] = target: GlcNAc(b1-3)Gal(b1-4)GlcNAc(b1-3)Gal(b1-4)GlcNAc(b1-3)Gal(b1-4)GlcNAc(b1-2)Man(a1-3)[GlcNAc(b1-3)Gal(b1-4)GlcNAc(b1-3)Gal(b1-4)GlcNAc(b1-3)Gal(b1-4)GlcNAc(b1-2)Man(a1-6)]Man(b1-4)GlcNAc(b1-4)[Fuc(a1-6)]GlcNAc
# In short: as §1
# [35] = target: GlcNAc(b1-3)Gal(b1-4)GlcNAc(b1-3)Gal(b1-4)GlcNAc(b1-3)Gal(b1-4)GlcNAc(b1-2)[GlcNAc(b1-3)Gal(b1-4)GlcNAc(b1-3)Gal(b1-4)GlcNAc(b1-3)Gal(b1-4)GlcNAc(b1-6)]Man(a1-6)[GlcNAc(b1-3)Gal(b1-4)GlcNAc(b1-3)Gal(b1-4)GlcNAc(b1-3)Gal(b1-4)GlcNAc(b1-2)Man(a1-3)]Man(b1-4)GlcNAc(b1-4)[Fuc(a1-6)]GlcNAc
# In short: as §1
# [36] = target: GlcNAc(b1-3)Gal(b1-4)GlcNAc(b1-3)Gal(b1-4)GlcNAc(b1-3)Gal(b1-4)GlcNAc(b1-3)Gal(b1-4)GlcNAc(b1-2)Man(a1-3)[GlcNAc(b1-3)Gal(b1-4)GlcNAc(b1-3)Gal(b1-4)GlcNAc(b1-3)Gal(b1-4)GlcNAc(b1-3)Gal(b1-4)GlcNAc(b1-2)Man(a1-6)]Man(b1-4)GlcNAc(b1-4)GlcNAc
# In short: as §1
# [37] = target: GlcNAc(b1-3)Gal(b1-4)GlcNAc(b1-3)Gal(b1-4)GlcNAc(b1-3)Gal(b1-4)GlcNAc(b1-3)Gal(b1-4)GlcNAc(b1-2)Man(a1-3)[GlcNAc(b1-3)Gal(b1-4)GlcNAc(b1-3)Gal(b1-4)GlcNAc(b1-3)Gal(b1-4)GlcNAc(b1-3)Gal(b1-4)GlcNAc(b1-2)Man(a1-6)]Man(b1-4)GlcNAc(b1-4)[Fuc(a1-6)]GlcNAc
# In short: as §1
binder,measurement,setting,value
B1,glycan array binding signal (z-score),Glc(b1-4)Glc,-0.277
same,glycan array binding signal (z-score),Glc(b1-6)Glc,-0.246
same,glycan array binding signal (z-score),GlcA(b1-3)Gal,-0.329
same,glycan array binding signal (z-score),GlcA(b1-3)GlcNAc,-0.124
same,glycan array binding signal (z-score),GlcA(b1-6)Gal,-0.241
same,glycan array binding signal (z-score),[1],-0.332
same,glycan array binding signal (z-score),[2],-0.269
same,glycan array binding signal (z-score),[3],-0.291
same,glycan array binding signal (z-score),[4],-0.295
same,glycan array binding signal (z-score),[5],-0.24
same,glycan array binding signal (z-score),[6],-0.285
same,glycan array binding signal (z-score),[7],-0.368
same,glycan array binding signal (z-score),[8],-0.304
same,glycan array binding signal (z-score),[9],-0.236
same,glycan array binding signal (z-score),[10],0.641
same,glycan array binding signal (z-score),[11],-0.291
same,glycan array binding signal (z-score),[12],-0.145
same,glycan array binding signal (z-score),[13],-0.073
same,glycan array binding signal (z-score),[14],3.07
same,glycan array binding signal (z-score),[15],-0.309
same,glycan array binding signal (z-score),[16],1.58
same,glycan array binding signal (z-score),[17],-0.307
same,glycan array binding signal (z-score),[18],-0.383
same,glycan array binding signal (z-score),[19],-0.263
same,glycan array binding signal (z-score),[20],-0.07
same,glycan array binding signal (z-score),[21],-0.293
same,glycan array binding signal (z-score),[22],4.99
same,glycan array binding signal (z-score),[23],-0.369
same,glycan array binding signal (z-score),GlcNAc(b1-3)Fuc,-0.11
same,glycan array binding signal (z-score),GlcNAc(b1-3)Gal,-0.269
same,glycan array binding signal (z-score),[24],-0.213
same,glycan array binding signal (z-score),GlcNAc(b1-3)Gal(b1-4)Glc,-0.205
same,glycan array binding signal (z-score),[25],-0.242
same,glycan array binding signal (z-score),[26],-0.233
same,glycan array binding signal (z-score),[27],5.62
same,glycan array binding signal (z-score),[28],-0.108
same,glycan array binding signal (z-score),[29],-0.256
same,glycan array binding signal (z-score),[30],-0.159
same,glycan array binding signal (z-score),[31],5.5
same,glycan array binding signal (z-score),[32],2.54
same,glycan array binding signal (z-score),[33],-0.156
same,glycan array binding signal (z-score),[34],5.16
same,glycan array binding signal (z-score),[35],1.38
same,glycan array binding signal (z-score),[36],-0.241
same,glycan array binding signal (z-score),[37],4.81
